Assay results published in PubChem BioAssay (Tox21).
Results filed as inconclusive are left out. Calls come from the whole dose curve; as a rule, active = well fitted inhibition curve with a large enough effect in the repeat runs; inconclusive = weak or mixed curves; inactive = no such curve, though single readings can be large or run the other way. More than one record can exist for a structure, and the calls need not agree. Not every entry of the source has a single result; some have several. They are shown here; other results are not. There may be further records. Values given together repeat one measurement in other runs, samples, wells, individuals or studies. Records carry a tag for their origin. The letters are not those of the source and start again with each entry.

Test: qHTS assay to identify small molecule antagonists of the thyroid receptor (TR) signaling pathway (AID 743065); note: nearly all actives have a fitted effect of over 55% in size
Conditions: GH3.TRE-Luc, T3-stimulated luciferase inhibition, 23.5 h; series mostly up to 70.3 µM
How it was run: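 Antagonism measured as loss of luciferase signal in GH3 cells stably carrying a TRE-luciferase reporter, co-treated with compound and T3 (1 nM final) for 23.5 h at 37 C. Viability was read in the same well by CellTiter-Fluor.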
Potency is the fitted concentration of half-maximal effect.

| SMILES | Potency |
| --- | --- |
| CN1CCCCC1CCN1c2ccccc2Sc2ccc(S(C)=O)cc21 (centres undefined) | inactive [sample A] and active: 13.3 µM [sample B] |
| CC(C)(C)c1ccc(C(O)CCCN2CCC(C(O)(c3ccccc3)c3ccccc3)CC2)cc1 (centres undefined) | inactive [sample A] and active: 5.96 µM [sample B] |
| CCCCC/C=C\C/C=C\CCCCCCCC(=O)O | inactive [sample A] and active: 54.5 µM [sample B] |
| Oc1c(I)cc(Cl)c2cccnc12 | inactive [sample A] and active: 24.3 µM [sample B] |
